Data: PubChem BioAssay AID686978 (National Center for Advancing Translational Sciences (NCATS), 2013)
Hit rate of the full screen: of about 420,000 compounds, about 64,000 (15%) were called active. This list was built around the results that the source calls inconclusive (neither active nor inactive); the mix of calls is not that of the screen. Calls follow the shape of the dose curve; as a rule, active = well fitted inhibition curve with a large enough effect; inconclusive = small, poorly fitted or top-dose-only effect; inactive = flat fitted curve, though single readings scatter. Potencies of inconclusive entries are left out as doubtful fits.
% is scaled to controls: 0 for no effect and ±100 for the full control effect; potency is read from the fitted curve at half-maximal effect; tags tell the direction and shape of the fitted curve.

Test: qHTS for Inhibitors of human tyrosyl-DNA phosphodiesterase 1 (TDP1): qHTS in cells in absence of CPT; also: nearly all actives have a fitted effect of over 55% in size
Conditions: DT40 Tdp1-/- hTDP1 cells, no CPT, ATP luminescence, 48 h; activity change, negative = growth inhibition: at 46.2 µM (top of the series) unless noted
In short: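 Chicken DT40 Tdp1-/- cells stably complemented with human TDP1 were seeded at 400 cells/well with DMSO in place of 20 nM camptothecin. After compound pinning, cells grew at least 48 hr at 37 °C; viability read by CellTiter-Glo luminescence.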
With N#Cc1c(NCc2ccccc2)ccnc1NCc1cccnc1 the Potency was active: 8.2 µM. In the case of CCCCCCCCSC1=CC(=O)C(OC)=C(OC)C1=O, the Potency is reported as active: 1.03 µM. In the case of Cc1cc(C)cc(NC(=O)CCc2nc3ccccc3[nH]2)c1, the Potency is reported as inconclusive [inhibitor, single point]. With Cc1c(C(=O)N2CCN(C/C=C/c3ccccc3)CC2)oc2c(F)cccc12 the Potency was inconclusive [inhibitor, single point]. For Cc1occc1-c1nnc(SCC(=O)NC2CCCC2)n1-c1ccccc1, the Potency was inconclusive [inhibitor, single point]. With CCN(c1ccccc1)S(=O)(=O)c1cccc(C(=O)N(C)CCOc2ccccc2)c1 the Potency was active: 20.6 µM. With O=C(Nc1ccc(Br)cn1)c1ccc(Cl)s1 the Potency was active: 18.4 µM. With COC(=O)c1ccc(C)c(NC(=O)Cc2coc3cc(OC)ccc23)c1 the Potency was inconclusive [inhibitor, partial curve]. For Cc1cnc(CNc2ccnc(-c3cccc(NS(C)(=O)=O)c3)n2)cn1, the “activity change, negative = growth inhibition” value was inactive: 0.276%. With Cc1ccc(N2C(=O)CC2(C#N)c2ccc(OCc3ccccc3)cc2)cc1 (configuration not stated) the Potency was inconclusive [inhibitor, single point]. For O=C1CCN(Cc2ccccc2)C=C1c1cccc(O)c1, the Potency was inconclusive [inhibitor, single point]. In the case of CS(=O)(=O)CCC(C(=O)OCc1ccc(Cl)cc1)N1C(=O)c2ccccc2C1=O (configuration not stated), the Potency is reported as inconclusive [inhibitor, full curve]. In the case of O=C(NCCc1ccccc1)c1cccs1, the “activity change, negative = growth inhibition” value is reported as inactive: -7.2%. In the case of Cc1ccccc1-c1nc(N2CCOCC2)c2ccccc2n1, the “activity change, negative = growth inhibition” value is reported as inactive: -11.2%. In the case of CCCn1nc(C(=O)NC2CCCc3ccccc32)c2ccccc2c1=O (configuration not stated), the Potency is reported as inconclusive [inhibitor, single point]. For CCOC(=O)C1=C(C)NC(=O)NC1c1c(OC)ccc2ccccc12 (configuration not stated), the “activity change, negative = growth inhibition” value was inactive: -12.9%. In the case of CC1(C(=O)NCc2ccccc2Br)CCN1Cc1c(F)cccc1F (configuration not stated), the Potency is reported as inconclusive [inhibitor, single point]. With COc1ccc(C(=O)NN/C(C)=C/C(=O)c2ccccc2)cc1 the Potency was inconclusive [inhibitor, single point]. For COc1cccc2cc(C(=O)NCc3ccc(C)cc3)c(=N)oc12, the Potency was inconclusive [inhibitor, single point]. For COc1ccc(NS(=O)(=O)c2ccc(Cl)c(C(=O)O)c2)cc1S(=O)(=O)N1CCCCC1, the “activity change, negative = growth inhibition” value was inactive: 43.7%. With O=S(=O)(NCC(c1ccco1)N1CCOCC1)c1ccc(F)cc1 (configuration not stated) the “activity change, negative = growth inhibition” value was inactive: -9.95%. With O=c1c2c(-c3ccco3)csc2nc(SCc2cn3cccnc3n2)n1-c1ccccc1 the Potency was inconclusive [inhibitor, single point].
